Assay results: article PMC11363325, “A Novel Prodrug Strategy Based on Reversibly Degradable Guanidine Imides for High Oral Bioavailability and Prolonged Pharmacokinetics of Broad-Spectrum Anti-influenza Agents” (ACS Central Science, 2024)

Legend:
in vitro = conditions: dog
[1] = system: A/Puerto Rico/8/1934 (PR8; H1N1); test: microbe, parasite or virus in culture; conditions: Influenza A virus, MDCK
[2] = system: A/Hong Kong/8/1968 (HK; H3N2); test: microbe, parasite or virus in culture; conditions: Influenza A virus, H3N2, MDCK
B/Lee/1940 (Lee) = test: microbe, parasite or virus in culture; conditions: Influenza B virus, MDCK

## CCC(CC)O[C@@H]1C=C(C(=O)O)C[C@H](N=C(N2C(=O)CC(C)C2=O)N2C(=O)CC(C)C2=O)[C@H]1NC(C)=O (stereo partly shown) [OSC-GCDI(M)]
In vitro
  CC50 at 3 days: > 100 µM
[1]
  EC50: 0.04 ± 0.01 µM

## CCC(CC)O[C@@H]1C=C(C(=O)O)C[C@H](N=C(N2C(=O)CCC2=O)N2C(=O)CCC2=O)[C@H]1NC(C)=O [OSC-GCDI(S)]
[2]
  EC50: 0.03 ± 0.01 µM
In vitro
  CC50 at 3 days: > 100 µM
B/Lee/1940 (Lee)
  EC50: 11.1 ± 1.2 µM
[1]
  EC50: 0.06 ± 0.01 µM

## NC(=O)c1ncn([C@@H]2O[C@H](CO)[C@@H](O)[C@H]2O)n1 [RBV, Ribavirin, reference compound]
B/Lee/1940 (Lee)
  EC50: 13.4 ± 0.95 µM
